# Test results published in PubChem BioAssay AID1487 (National Center for Advancing Translational Sciences (NCATS), 2009).
# Out of some 200,000 compounds screened, about 25 (0.01%) were called active. Not shown: some 23% with an inconclusive outcome. Calls come from the whole dose curve; as a rule, active = well fitted inhibition curve with a large enough effect in the signal ratio, with a control signal flat (not every such curve was filed as active); inconclusive = small, poorly fitted or top-dose-only effect, or effect the other way, or a change in a side signal; inactive = flat fitted curve, though single readings scatter; the % refers to the signal ratio. The entries are a selection whose mix differs from that of the whole data set. Where a structure was tested more than once in an assay, its records may differ in their call.
# Experiment: qHTS Assay for Modulators of Lamin A Splicing
# Details: HeLa LMNA splicing GFP/RFP minigene ratio, 48 h; series mostly up to 46.1 µM; ratio change, negative = inhibition: at the top concentration
# From the text: NCGC Assay Overview: Hutchinson-Gilford Progeria Syndrome (HGPS) is a pediatric premature aging disease caused by a spontaneous mutation in the lamin A/C (LMNA) gene. The mutation activates a cryptic splice site in the LMNA pre-mRNA which results in production of a pre-lamin A protein that cannot be processed properly. The mutant protein accumulates in the nucleus and negatively affects numerous cellular functions. Correction of the splicing defect in HGPS patient cells using a targeted oligonucleotide (exo11) leads to reversal of the cellular disease phenotypes. To identify small molecule modulators of aberrant LMNA splicing, a homogenous assay was constructed in HeLa cells that used a GFP containing minigene to report on correction of aberrant splicing in lamin A and a RFP (DsRed2) to report on cell viability, uniformity and nonspecific effects on the assay signal. This assay was adapted to laser-scanning microplate cytometry (Acumen, TTP Labtech) where miniaturization of the assay to a 1,536-well plate format was possible. References: Bowen, W. P.; Wylie, P. G. Application of Laser-Scanning Fluorescence Microplate Cytometry in High Content Screening. Assay Drug Dev Technol 2006;4:209-221. Scaffidi P, Misteli T. Reversal of the cellular phenotype in the premature aging disease Hutchinson-Gilford progeria syndrome. Nat.
# NCGC Assay Protocol Summary: Reagents/Controls: Stable clones expressing DsRed2 and lamin A-EGFP were generated by Cell and Molecular Technologies in S3 HeLa cells. HeLa cells were prepared for the assay when they were 70-90% confluent. The cells were counted and resuspended in Opti-MEM I (no phenol red; Gibco), 2% FBS, 1% penicillin/ streptomycin (Gibco) at concentration of 120 cells/uL concentration. The suspension was passed through a Falcon basket filter with pore size 40um (Beckton Dickson). Control titrations: column […] 1536-well plate contained a sixteen point titration (1:2 dilutions) in duplicate of ancitabine (Sigma: A8598) beginning at 40 uM final concentration. Column 2 contained a sixteen point titration (1:2 dilutions) of cycloheximide beginning at 1.4 mM final concentration. Column 3 contained ancitabine at 40 uM and column 4 contained was the vehicle control (0.5% DMSO final concentration). Assay Steps: 5 uL of HeLa cells were plated in Aurora LoBase black clear bottom (cyclic-olefin polymer) 1536-well plates at a final density of 600 cells/well. Controls and library compounds were added with a 1536-well pin array using the Kalypsys pin-tool. The plates were then incubated for 48 hrs in a cell-culture incubator (37 °C; 5% CO2, 98% humidity). Following incubation the plates were read on the Acumen Explorer using the 488 nm laser. Data was collected on objects between 10 and 100 um in size. Cell objects were defined by a 15 um width x 10 um depth filter. The ratio of the total object intensity in PMT1 (500-530 nm emission; GFP) over PMT3 (575-640 nm emission; RFP) was calculated for analysis. Keywords: NIH Roadmap, MLSCN, MLI, MLSMR, qHTS, NCGC, lamin A, Progeria, RNA splicing.
# % is set by controls: 0 for no effect and ±100 for the full control effect; potency is the fitted concentration of half-maximal effect.
Structure (SMILES),"ratio change, negative = inhibition",Potency
CN1CCc2c(c3ccccc3n2Cc2ccccc2)C1,inactive: -0.39%,–
OCCOCCN1CCN(C2=Nc3ccccc3Sc3ccccc32)CC1,inactive: -13.4%,–
CC1(C)S[C@@H]2[C@H](NC(=O)[C@H](N)c3ccc(O)cc3)C(=O)N2[C@H]1C(=O)O,inactive: 3.69%,–
O=C(O)[C@@H](O)c1ccccc1,inactive: 2.4% [at 46 µM],–
NC(=O)c1cc[n+](CC2=C(C(=O)O)N3C(=O)[C@@H](NC(=O)[C@@H](c4ccccc4)S(=O)(=O)[O-])[C@H]3SC2)cc1,inactive: -12.7%,–
CC[N+](C)(C)Cc1ccccc1Br,–,inactive
Cc1oncc1C(=O)Nc1ccc(C(F)(F)F)cc1,inactive: -8.66%,–
CC(CCc1ccccc1)NCC(O)c1ccc(O)c(C(N)=O)c1 (stereo not given),inactive: -1.16%,–
Cc1cn(C2C=CC(CO)O2)c(=O)[nH]c1=O (stereo not given),inactive: -5.56%,–
Cc1cc(C(C)(C)C)c(O)c(C)c1CC1=NCCN1,inactive: -7.47%,–
CN1CCN(c2nc(-c3cccnc3)nc3ccccc23)CC1,inactive: -11.6%,–
COc1ccc2c(c1OC)C(=O)OC2C1c2c(cc3c(c2OC)OCO3)CCN1C (stereo not given),inactive: -0.345%,–
CCCN1C[C@H](CSC)C[C@@H]2c3cccc4[nH]cc(c34)C[C@H]21,inactive: -13.6%,–
Cc1ccc(CNC(=O)C2(c3cccs3)CCOCC2)cc1,inactive: -2.83%,–
CC1=C(/C=C/C(C)=C/C=C/C(C)=C/C(=O)O)C(C)(C)CCC1,inactive: -15.1%,–
CCO/C([O-])=N/c1c[n+](N2CCOCC2)no1,inactive: -4.41%,–
CCCCCCCCCCCCCCCC(O)C(N)CO (stereo not given),inactive: 8.18%,–
CN1C(=O)C(O)(CC(=O)c2ccccc2O)c2cc(Br)ccc21 (stereo not given),inactive: -2.4% [at 46 µM],–
N[C@@H]1CONC1=O,–,inactive
COc1cc2nc(N(C)CCCNC(=O)C3CCCO3)nc(N)c2cc1OC (stereo not given),inactive: 0.736% [at 46 µM],–
Nc1ncnc2c1ncn2[C@@H]1O[C@H](CO)[C@@H](O)[C@H]1O,–,inactive
CCC[C@@H]1C[C@@H](C(=O)N[C@H]([C@@H](C)O)[C@H]2O[C@H](SC)[C@H](O)[C@@H](O)C2O)N(C)C1 (stereo not given in full),inactive: -1.53%,–
CC[C@H](NC(C)C)[C@H](O)c1ccc(O)c(O)c1,inactive: 9.73%,–
COc1cc(C2Oc3cc(C4Oc5cc(O)cc(O)c5C(=O)C4O)ccc3OC2CO)ccc1O (stereo not given),inactive: 5.19%,–
NCCCCCCNS(=O)(=O)c1cccc2c(Cl)cccc12,inactive: 6.01%,–
CN1C2CCC1CC(OC(c1ccccc1)c1ccccc1)C2 (stereo not given),inactive: -13.8% [at 46 µM],–
CN1CCc2cccc3c2[C@@H]1Cc1ccc(O)c(O)c1-3,inactive: -12.8%,–
CN(C)CCOC(c1ccccc1)c1ccccc1,–,inactive

Structure (SMILES),"ratio change, negative = inhibition",Potency
CC(C)NC[C@@H](O)c1ccc(O)c(O)c1,inactive: 11.8%,–
C[C@@H](C(=O)O)c1cccc(C(=O)c2ccccc2)c1,inactive: -7.85%,–
NS(=O)(=O)c1cc2c(cc1Cl)NC=NS2(=O)=O,inactive: 9.85%,–
NC(N)=NC(=O)Cc1c(Cl)cccc1Cl,inactive: -5.06%,–
NCCc1cnc[nH]1,–,inactive
CCN(CC)CCNC(=O)c1cc(Cl)c(N)cc1OC,–,inactive
COC(=O)C1=C(C)N(Cc2ccco2)C(=O)N[C@H]1c1cccc(C(F)(F)F)c1,inactive: 3.52%,–
NC/C=C/C(=O)O,–,inactive
NC(=O)N/N=C\c1ccc([N+](=O)[O-])o1,inactive: -4.9%,–
Cc1cc(NC(=O)CCCN2C(=O)/C(=C/c3cccs3)SC2=S)no1,inactive: -16.7%,–
CC(C)[N+](C)(CCOC(=O)C1c2ccccc2Oc2ccccc21)C(C)C,inactive: -2.35%,–
Cn1c(=O)[nH]c2ncn(C)c2c1=O,inactive: -4.81%,–
CN/C(=C\[N+](=O)[O-])NCCSCc1ccc(CN(C)C)o1,–,inactive
O=C1O/C(=C/C(=O)N2CCOCC2)c2ccccc21,inactive: -11.6%,–
CCc1nc(N)nc(N)c1-c1ccc(Cl)cc1,inactive: -27.7%,–
CC(C)NCC(O)COc1ccc(CCOCC2CC2)cc1 (stereo not given),–,inactive
C(=C\c1ccccc1)/CN1CCN(C(c2ccccc2)c2ccccc2)CC1,inactive: 1.11%,–
CCN(CC)C(=O)/C(=C\c1ccc2c(c1)OCO2)NC(=O)c1ccc(Br)cc1,inactive: -6.03%,–
COC(=O)/C(=C\c1c[nH]c2ccccc12)NC(C)=O,inactive: -6.85%,–
COc1ccc2c(c1)c(CC(=O)O)c(C)n2C(=O)c1ccc(Cl)cc1,inactive: -15%,–
CC(C)C[C@H](NC(=O)[C@H](O)[C@H](N)Cc1ccccc1)C(=O)O,inactive: 4.27%,–
COCCNc1ncnc2ccc(-c3c(C)noc3C)cc12,–,active: 2.82 µM
COc1ccc2c(c1OC)C(=O)O[C@@H]2[C@H]1c2c(cc3c(c2OC)OCO3)CCN1C,inactive: 2.49%,–
Cc1cccc2sc(NNC(=O)c3ccc(S(=O)(=O)N4CC(C)CC(C)C4)cc3)nc12 (stereo not given),–,active: 17.8 µM
CN1CCN(CCCN2c3ccccc3Sc3ccc(C(F)(F)F)cc32)CC1,inactive: -10.9% [at 46 µM],–
Nc1ccn([C@H]2CC[C@@H](CO)O2)c(=O)n1,inactive: -26.1%,–
COc1ccccc1-c1nc(-c2ccc(Br)o2)no1,inactive: -2.38%,–
